Assay results as given in PubChem BioAssay (NCATS).
The shares of active, inactive and inconclusive entries below differ from those in the screen. Potencies of inconclusive entries are doubtful fits and often do not repeat. The source made the active and inactive calls. Calls follow the shape of the dose curve; as a rule, active = well fitted cell-killing curve with a large enough effect; inconclusive = small, poorly fitted or top-dose-only effect, or effect the other way; inactive = flat fitted curve, though single readings scatter.

assay: S16 Schwann cell viability assay (CellTiter-Glo assay) (AID 624031); conditions: S16 rat Schwann cells viability, 24 h; series mostly up to 57.5 µM; activity change, negative = cytotoxicity: at the top concentration;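 also: cellular ATP luminescence as a viability measure; nearly all actives have a fitted effect of over 70% in size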
Excerpt: Charcot-Marie-Tooth-Association [CMTA]
National Center for Advancing Translational Sciences [NCATS]
Charcot-Marie-Tooth (CMT) disease was first characterized by Jean-Martin Charcot and Pierre Marie in France and, independently, by Howard Henry Tooth in England in 1886. CMT is one of the most common inherited neurological diseases, affecting approximately 1 in 2,500 Americans. […] The most prevalent type of CMT is known as CMT1A and caused by a duplication of the PMP22 gene which leads to over-expression of this protein. PMP22 is a glycosylated intrinsic membrane protein accounting for 2-5% of the myelin protein content, and its over-expression results in demyelination and subsequently axonal loss.
A pair of cellular transcription-based assays was developed in the S16 rat Schwann cell lines (Hai, M., et al., 2002) stably transfected with orthogonal reporters - firefly luciferase (Fluc) and beta-lactamase (beta-Lac) - whose expression is driven by an intronic regulatory element of the PMP22 gene (Jones, E.A., et al., 2011) to recapitulate endogenous expression of PMP22. A comprehensive library of approved drugs, the NCGC Pharmaceutical Collection (Huang, R., et al., 2011), was screened in the cross-validating platform of the orthogonal reporter assays to identify drug modulators inhibitory towards PMP22 expression.
A set of counter-screens was devised to address non-specific activity of the library. An ATP-dependent CellTiter-Glo assay (developed by Promega Corp) was utilized to control cell viability. In addition, biochemical Fluc enzyme assay was performed to assess direct inhibition of the Fluc enzymatic activity.
Hai, M., Muja, N., DeVries, G.H., Quarles, R.H. and Patel, P.I. Comparative analysis of Schwann cell lines as model systems for myelin gene transcription studies. J Neurosci Res, 2002. 69(4): pp 497-508
Huang, R., Southall, N., Wang, Y., Yasgar A., Shinn P., Jadhav, A. , Nguyen, D.-T. and Austin, C.P., The NCGC pharmaceutical collection: a comprehensive resource of clinically approved drugs enabling repurposing and chemical genomics. Sci Transl Med, 2011. 3(80): p. 80ps16.
Native S16 cells were seeded in white solid-bottom 1536 well plates at between 500-750 cells/6uL in DMEM medium containing 10% FBS, w/o phenol red. After overnight incubation at 37 degree Celsius/5% C02, 23 nL of compounds or DMSO were delivered to each well using a pin tool, followed by 24h-incubation at 37 degree Celsius/5% C02. Then one volume of CellTiter-Glo assay reagent (Promega) was added to each well for cell viability measured by a ViewLux plate reader (PerkinElmer). The % activity was determined by normalizing to the average readings from wells containing no cells relative to DMSO-treated cells (0% Activity). The concentration-effect curves were then classified based on curve quality (r2), response magnitude and degree of measured activity.
Potency is read from the fitted curve at half-maximal effect; tags tell the direction and shape of the fitted curve.

Q: For `CC(C)(C)C(=O)Oc1ccc(S(=O)(=O)Nc2ccccc2C(=O)NCC(=O)O)cc1`, which Potency is on record?
A: Its Potency is inconclusive: 40.5 µM [cytotoxic, partial curve, poor fit].

Q: With `CC1=CC(=O)c2ccccc2C1=O` as the molecule, how does the Potency read?
A: The Potency was active: 14.4 µM.

Q: With `COc1c(C)c2c(c(O)c1CC=C(C)CCC(=O)OCCN1CCOCC1)C(=O)OC2` as the molecule, how does the Potency read?
A: Its Potency is inconclusive: 20.3 µM [cytotoxic, full curve].

Q: Which Potency does the source give for `C1COC(NC(C2CC2)C2CC2)=N1` here?
A: Its Potency is inconclusive: 18.1 µM [rising, partial curve, poor fit].

Q: With `COc1c2occc2cc2ccc(=O)oc12` as the molecule, how does the “activity change, negative = cytotoxicity” value read?
A: The value was inactive: -1.66%.

Q: With `CCOC(=O)c1ncn2c1CN(C)C(=O)c1cc(F)ccc1-2` as the molecule, how does the “activity change, negative = cytotoxicity” value read?
A: The value was inactive: 8.74%.

Q: Which Potency does the source give for `N[C@@H](Cc1ccc(O)c(O)c1)C(=O)O` here?
A: Its Potency is inconclusive: 14.4 µM [cytotoxic, partial curve, poor fit].

Q: With `Cc1cc(NS(=O)(=O)c2ccc(N)cc2)no1` as the molecule, how does the “activity change, negative = cytotoxicity” value read?
A: The value was inactive: 0.924%.

Q: For `O=c1[nH]cnc2[nH]ncc12`, which “activity change, negative = cytotoxicity” value is on record?
A: Its value is inactive: 7.78%.

Q: With `COc1cccc(N(C)C(=S)Oc2ccc3c(c2)CCCC3)n1` as the molecule, how does the Potency read?
A: The Potency was inconclusive: 40.5 µM [cytotoxic, single point].

Q: With `O=C(O)CCNC(=O)c1ccc(N=Nc2ccc(O)c(C(=O)O)c2)cc1` as the molecule, how does the “activity change, negative = cytotoxicity” value read?
A: The value was inactive: 2.29%.

Q: Which “activity change, negative = cytotoxicity” value does the source give for `COc1ccc2c(c1OC)C(=O)OC2[C@H]1c2c(cc3c(c2OC)OCO3)CCN1C` (some centres undefined) here?
A: Its value is inactive: -0.549%.

Q: Which “activity change, negative = cytotoxicity” value does the source give for `Nc1nc2c(ncn2COC(CO)CO)c(=O)[nH]1` here?
A: Its value is inactive: 6.51% [at 25.7 µM].

Q: Which Potency does the source give for `COc1cc(NCc2ccc3nc(N)nc(N)c3c2C)cc(OC)c1OC` here?
A: Its Potency is active: 28.7 µM.

Q: With `CN(C)CCCN1c2ccccc2CCc2ccc(Cl)cc21` as the molecule, how does the Potency read?
A: The Potency was active: 20.3 µM.

Q: For `Fc1ccc(C(c2ccc(F)cc2)N2CCN(CC=Cc3ccccc3)CC2)cc1`, which Potency is on record?
A: Its Potency is inconclusive: 8.09 µM [cytotoxic, full curve].

Q: For `C[C@]12CCC(=O)C=C1CC[C@@H]1[C@H]2[C@@H](O)C[C@@]2(C)[C@H]1CC[C@]2(O)C(=O)CO`, which “activity change, negative = cytotoxicity” value is on record?
A: The value was inactive: -0.603%.

Q: For `CC(C)(S)[C@@H](N)C(=O)O`, which “activity change, negative = cytotoxicity” value is on record?
A: Its value is inactive: -4.05%.

Q: For `CNC(=O)c1cc(Oc2ccc(NC(=O)Nc3ccc(Cl)c(C(F)(F)F)c3)cc2)ccn1`, which Potency is on record?
A: The Potency was inconclusive: 28.7 µM [cytotoxic, partial curve].

Q: For `CN(c1nccc(=O)[nH]1)C1CCN(c2nc3ccccc3n2Cc2ccc(F)cc2)CC1`, which Potency is on record?
A: The Potency was inconclusive: 0.128 µM [cytotoxic, full curve, poor fit].

Q: For `Nc1nc(N)nc(-c2cc(Cl)ccc2Cl)n1`, which “activity change, negative = cytotoxicity” value is on record?
A: Its value is inactive: 4.53%.

Q: For `CN(C)CCC=C1c2ccccc2C=Cc2ccccc21`, which Potency is on record?
A: The Potency was inconclusive: 36.1 µM [cytotoxic, single point].

Q: With `C=C1c2cccc(O)c2C(O)=C2C(=O)[C@@]3(O)C(O)=C(C(N)=O)C(=O)[C@@H](N(C)C)[C@@H]3[C@@H](O)[C@H]12` as the molecule, how does the Potency read?
A: Its Potency is inconclusive: 0.001 µM [rising, full curve, poor fit].

Q: For `NC(=O)c1cccnc1`, which “activity change, negative = cytotoxicity” value is on record?
A: Its value is inactive: 15.2%.
